This note sets out measurements from PMC9911399, “Two distinct binding modes provide the RNA-binding protein RbFox with extraordinary sequence specificity”.

The chains are these.
T1: RBFOX1 RRM (Homo sapiens, UniProt Q9NWB1 109-208)
T1 sequence: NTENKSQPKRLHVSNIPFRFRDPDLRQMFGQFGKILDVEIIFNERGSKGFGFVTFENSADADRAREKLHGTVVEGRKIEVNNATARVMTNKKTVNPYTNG

B1: UGGGAGU (DNA:RNA)
RNA: GGGAGACCGGAAUUCAGAUUGUCCUGGGAGUUUAAAUCCCGUCGUAGCCACCA
DNA 1: CAATCTGAATTCCGGTCTCCC
DNA 2: TGGTGGCTACGACGGGATT
B2: UUGUUAG (DNA:RNA)
RNA: B1 RNA with G26U, G28U, A29U, G30A, U31G
DNA 1: CAATCTGAATTCCGGTCTCCC
DNA 2: TGGTGGCTACGACGGGATT
B3: CCGACAG (DNA:RNA)
RNA: B1 RNA with U25C, G26C, G28A, A29C, G30A, U31G
DNA 1: CAATCTGAATTCCGGTCTCCC
DNA 2: TGGTGGCTACGACGGGATT
B4: GACGUGA (DNA:RNA)
RNA: B1 RNA with U25G, G26A, G27C, A29U, U31A
DNA 1: CAATCTGAATTCCGGTCTCCC
DNA 2: TGGTGGCTACGACGGGATT
B5: CACGUGG (DNA:RNA)
RNA: B1 RNA with U25C, G26A, G27C, A29U, U31G
DNA 1: CAATCTGAATTCCGGTCTCCC
DNA 2: TGGTGGCTACGACGGGATT
B6: GGACCAA (DNA:RNA)
RNA: B1 RNA with U25G, G27A, G28C, A29C, G30A, U31A
DNA 1: CAATCTGAATTCCGGTCTCCC
DNA 2: TGGTGGCTACGACGGGATT
B7: GUACGGG (DNA:RNA)
RNA: B1 RNA with U25G, G26U, G27A, G28C, A29G, U31G
DNA 1: CAATCTGAATTCCGGTCTCCC
DNA 2: TGGTGGCTACGACGGGATT
B8: UGCAGGC (DNA:RNA)
RNA: B1 RNA with G27C, G28A, A29G, U31C
DNA 1: CAATCTGAATTCCGGTCTCCC
DNA 2: TGGTGGCTACGACGGGATT
B9: GGUUGAA (DNA:RNA)
RNA: B1 RNA with U25G, G27U, G28U, A29G, G30A, U31A
DNA 1: CAATCTGAATTCCGGTCTCCC
DNA 2: TGGTGGCTACGACGGGATT
B10: CAUGAGA (DNA:RNA)
RNA: B1 RNA with U25C, G26A, G27U, U31A
DNA 1: CAATCTGAATTCCGGTCTCCC
DNA 2: TGGTGGCTACGACGGGATT
B11: GGCCAUG (DNA:RNA)
RNA: B1 RNA with U25G, G27C, G28C, G30U, U31G
DNA 1: CAATCTGAATTCCGGTCTCCC
DNA 2: TGGTGGCTACGACGGGATT
B12: CAUAAGG (DNA:RNA)
RNA: B1 RNA with U25C, G26A, G27U, G28A, U31G
DNA 1: CAATCTGAATTCCGGTCTCCC
DNA 2: TGGTGGCTACGACGGGATT
B13: GCCCAUC (DNA:RNA)
RNA: B1 RNA with U25G, G26C, G27C, G28C, G30U, U31C
DNA 1: CAATCTGAATTCCGGTCTCCC
DNA 2: TGGTGGCTACGACGGGATT
B14: CUUAGAG (DNA:RNA)
RNA: GGGAGACCGGAAUUCAGAUUGUCCCUUAGAGUUAAAUCCCGUCGUAGCCACCA
DNA 1: CAATCTGAATTCCGGTCTCCC
DNA 2: TGGTGGCTACGACGGGATT
B15: CUACGGA (DNA:RNA)
RNA: B14 RNA with U27A, A28C, A30G, G31A
DNA 1: CAATCTGAATTCCGGTCTCCC
DNA 2: TGGTGGCTACGACGGGATT
B16: CUUCGUA (DNA:RNA)
RNA: B14 RNA with A28C, A30U, G31A
DNA 1: CAATCTGAATTCCGGTCTCCC
DNA 2: TGGTGGCTACGACGGGATT
B17: ACGGUCG (DNA:RNA)
RNA: B1 RNA with U25A, G26C, A29U, G30C, U31G
DNA 1: CAATCTGAATTCCGGTCTCCC
DNA 2: TGGTGGCTACGACGGGATT
B18: UGCUCCC (DNA:RNA)
RNA: B1 RNA with G27C, G28U, A29C, G30C, U31C
DNA 1: CAATCTGAATTCCGGTCTCCC
DNA 2: TGGTGGCTACGACGGGATT
B19: UCCAGCG (DNA:RNA)
RNA: B14 RNA with C25U, U26C, U27C, A30C
DNA 1: CAATCTGAATTCCGGTCTCCC
DNA 2: TGGTGGCTACGACGGGATT
B20: GUCCCGA (DNA:RNA)
RNA: B14 RNA with C25G, U27C, A28C, G29C, A30G, G31A
DNA 1: CAATCTGAATTCCGGTCTCCC
DNA 2: TGGTGGCTACGACGGGATT
B21: UGGUAUC (DNA:RNA)
RNA: B1 RNA with G28U, G30U, U31C
DNA 1: CAATCTGAATTCCGGTCTCCC
DNA 2: TGGTGGCTACGACGGGATT
B22: UACGGCC (DNA:RNA)
RNA: B1 RNA with G26A, G27C, A29G, G30C, U31C
DNA 1: CAATCTGAATTCCGGTCTCCC
DNA 2: TGGTGGCTACGACGGGATT
B23: CGAGUAA (DNA:RNA)
RNA: B14 RNA with U26G, U27A, A28G, G29U, G31A
DNA 1: CAATCTGAATTCCGGTCTCCC
DNA 2: TGGTGGCTACGACGGGATT
B24: CCCUUUA (DNA:RNA)
RNA: B14 RNA with U26C, U27C, A28U, G29U, A30U, G31A
DNA 1: CAATCTGAATTCCGGTCTCCC
DNA 2: TGGTGGCTACGACGGGATT
B25: GUAUAUC (DNA:RNA)
RNA: B14 RNA with C25G, U27A, A28U, G29A, A30U, G31C
DNA 1: CAATCTGAATTCCGGTCTCCC
DNA 2: TGGTGGCTACGACGGGATT
B26: AUGCCUU (DNA:RNA)
RNA: B1 RNA with U25A, G26U, G28C, A29C, G30U
DNA 1: CAATCTGAATTCCGGTCTCCC
DNA 2: TGGTGGCTACGACGGGATT
B27: CCGUUGU (DNA:RNA)
RNA: B1 RNA with U25C, G26C, G28U, A29U
DNA 1: CAATCTGAATTCCGGTCTCCC
DNA 2: TGGTGGCTACGACGGGATT
B28: CAGUUGU (DNA:RNA)
RNA: B1 RNA with U25C, G26A, G28U, A29U
DNA 1: CAATCTGAATTCCGGTCTCCC
DNA 2: TGGTGGCTACGACGGGATT
B29: AUCUACU (DNA:RNA)
RNA: B1 RNA with U25A, G26U, G27C, G28U, G30C
DNA 1: CAATCTGAATTCCGGTCTCCC
DNA 2: TGGTGGCTACGACGGGATT
B30: GCCAAAC (DNA:RNA)
RNA: B14 RNA with C25G, U26C, U27C, G29A, G31C
DNA 1: CAATCTGAATTCCGGTCTCCC
DNA 2: TGGTGGCTACGACGGGATT
B31: CAGCGGU (DNA:RNA)
RNA: B1 RNA with U25C, G26A, G28C, A29G
DNA 1: CAATCTGAATTCCGGTCTCCC
DNA 2: TGGTGGCTACGACGGGATT

Numbering of substitutions follows the chain as printed; changes in the protein carry UniProt numbers. The list shows a part of the results.

This experiment deals with T1, RBFOX1 RRM. The experiment in a line: EMSA; HiTS-Eq, 1 nM pool, 10 min; buffer printed only for the single-RNA assays: 10 mM Tris pH 7.5, 150 mM NaCl, 3.4 mM EDTA, 0.001% NP-40, 30 C. The following applies: tags: His6 N-terminal (pET28a); label: 5' 32P. The procedure, abridged: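 These values rest on relative association constants, computed from read-count changes of each RNA species versus the control reaction and normalised to the cognate motif. Reads came from free RNA recovered by 8% native PAGE after purified RbFox RRM (wild type or mutant) at increasing concentrations was equilibrated for 10 min in 50 µL with 1 nM of a 5′-radiolabelled pool with 7 randomized nucleotides and DNA-annealed flanks.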
Regarding B1, the binding signal is 0.0357 KA relative to UGCAUGU.
Next, B2: 0.0257 KA relative to UGCAUGU.
Next, B3: 0.0084 KA relative to UGCAUGU; B4: 0.0121 KA relative to UGCAUGU.
Next, B5: 0.00501 KA relative to UGCAUGU; B6: 0.00354 KA relative to UGCAUGU.
Take B7: the binding signal was 0.00942 KA relative to UGCAUGU.
For the molecule B8, the binding signal was 0.0192 KA relative to UGCAUGU.
The same measure for B9: 0.0102 KA relative to UGCAUGU.
As for B10, the binding signal is 0.0117 KA relative to UGCAUGU.
Next, B11: 0.013 KA relative to UGCAUGU.
The same measure for B12: 0.0076 KA relative to UGCAUGU.
For B13, the binding signal was 0.00823 KA relative to UGCAUGU.
The same measure for B14: 0.0116 KA relative to UGCAUGU; for B15: 0.00611 KA relative to UGCAUGU.
The same measure for B16: 0.00744 KA relative to UGCAUGU; for B17: 0.0129 KA relative to UGCAUGU.
Next, B18: 0.00242 KA relative to UGCAUGU; B19: 0.00606 KA relative to UGCAUGU; B20: 0.00559 KA relative to UGCAUGU.
Take B21: the binding signal was 0.0158 KA relative to UGCAUGU.
The same measure for B22: 0.012 KA relative to UGCAUGU; for B23: 0.00659 KA relative to UGCAUGU; for B24: 0.00199 KA relative to UGCAUGU.
The same measure for B25: 0.00955 KA relative to UGCAUGU.
The same measure for B26: 0.00845 KA relative to UGCAUGU; for B27: 0.0105 KA relative to UGCAUGU; for B28: 0.0137 KA relative to UGCAUGU.
In the case of B29, the binding signal was 0.00271 KA relative to UGCAUGU.
Next, B30: 0.00274 KA relative to UGCAUGU.
On to B31, for which the binding signal was 0.0136 KA relative to UGCAUGU.
